Reference: PubChem BioAssay AID2546 (National Center for Advancing Translational Sciences (NCATS), 2010)
Out of some 310,000 compounds screened, about 11,000 (3.5%) were called active. Inconclusive results, whose numbers are uncertain, are shown with a selection of clear calls. Calls follow the shape of the dose curve; as a rule, active = well fitted inhibition curve with a large enough effect; inconclusive = small, poorly fitted or top-dose-only effect, or effect the other way; inactive = flat fitted curve, though single readings scatter. Potencies of inconclusive entries are left out as doubtful fits.

test: VP16 counterscreen qHTS for inhibitors of ROR gamma transcriptional activity; settings: Drosophila S2 Gal4-VP16 UAS-luciferase, luminescence, 20 h; activity, negative = inhibition: at 53.6 µM (top of the series);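 also: Gal4-VP16 expression switched on by copper sulfate through the metallothionein promoter; nearly all actives have a fitted effect of over 50% in size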
% is scaled to controls: 0 for no effect and ±100 for the full control effect; potency is read from the fitted curve at half-maximal effect; tags tell the direction and shape of the fitted curve.

Compound | Potency | activity, negative = inhibition
Cc1csc(=O)n1CC(=O)OCC(=O)NNC(=O)c1ccccc1 | inconclusive [activator, single point] | –
COCCNC(=S)Nc1ccc(Cl)c(Cl)c1 | inconclusive [inhibitor, single point] | –
[O-][n+]1cccc2c(Br)cc(Br)c(O)c21 | active: 0.708 µM | –
O=C(/C=C/c1ccc([N+](=O)[O-])cc1)/C=C/c1ccco1 | inconclusive [inhibitor, single point] | –
Cc1nnc(SCC(=O)Nc2ccccc2F)n1-c1ccc(F)cc1 | inactive | –
O=C(CN1C(=O)S/C(=C/c2cccnc2)C1=O)N1CCOCC1 | inconclusive [inhibitor, single point] | –
Cc1ccc(-c2nc(-c3ccccn3)no2)cc1Cl | active: 5.62 µM | –
c1cc(Nc2ncnc3sccc23)cc(-c2nnc3n2CCCCC3)c1 | inactive | –
Cc1cc(=O)n2c(C(=O)Nc3ccc(C)c(C)c3)c(C(=O)Nc3ccccc3)sc2n1 | inconclusive [inhibitor, single point] | –
Nc1nnnn1/N=C/c1ccccc1OCc1ccc(Cl)cc1Cl | inconclusive [inhibitor, single point] | –
Clc1ccc(-c2ccc(SCc3ccccn3)nn2)cc1 | inconclusive [inhibitor, single point] | –
COc1ccc(CNC(=O)c2c(N)n(CCCN3CCOCC3)c3nc4ccccc4nc23)cc1 | inconclusive [inhibitor, single point] | –
COc1cc(C(=O)O/N=C(\N)c2ccc([N+](=O)[O-])cc2)cc(OC)c1OC | inconclusive [inhibitor, single point] | –
COc1ccc(C(=O)NNC2=Nc3cccc4cccc2c34)cc1 | inconclusive [inhibitor, full curve] | –
CCCNC(=O)OC[C@@H]1O[C@H](CCO/N=C\C[C@H]2C=C[C@H](OC(C)=O)[C@@H](COC(C)=O)O2)C=C[C@@H]1Oc1ccc(OC)cc1 | – | inactive: -2.11% [at 10 µM]
COc1ccc(NC(=O)c2cc3ccccc3cc2O)cc1 | inactive | –
COc1ccc(NC(=O)/C(C#N)=C/c2c(C)nn(-c3ccc(F)cc3)c2Cl)cc1OC | inconclusive [inhibitor, partial curve] | –
CCCCCCCCC#Cc1nc(C)ccc1OC | inconclusive [inhibitor, single point] | –
CC1(C)CC(=O)c2sc(NS(=O)(=O)c3ccc(F)cc3)nc2C1 | inactive | –
COC(=O)c1ccc(CN2[C@@H]3C[C@@H](O)CC[C@@H]3C[C@H]2C(=O)OC)cc1 | inactive | –
Cc1ccc(S(=O)(=O)N2CCOCC2)cc1C(=O)NC1CCSc2ccccc21 (configuration not stated) | inactive | –
Cc1nn(-c2nc3ccccc3[nH]2)c(N)c1-c1ccccc1 | inconclusive [inhibitor, single point] | –
COCCNC(=S)N1CCC(Cc2ccccc2)CC1 | inactive | –
Cc1cc(O)c(C(C)C)cc1N=Cc1cc([N+](=O)[O-])ccc1O | inconclusive [inhibitor, single point] | –

Compound | Potency | activity, negative = inhibition
CC/C(O)=C(/C#N)c1nnc2n1CCCCC2 | inconclusive [inhibitor, single point] | –
O=C1c2ccccc2C(=O)c2[nH]c(=O)[nH]c21 | active: 7.08 µM | –
CCOC(=O)c1cnc(-n2nc(C)cc2C)nc1NCCc1ccccc1 | active: 1.78 µM | –
CC(C)(C)NC(=S)N/N=C\c1ccc(-c2ccc([N+](=O)[O-])cc2)o1 | inconclusive [inhibitor, single point] | –
Cc1ccc(Cl)cc1N1CCN(C(=O)C2CCC(=O)N(C3CCCCCC3)C2)CC1 (configuration not stated) | inconclusive [inhibitor, single point] | –
S=C(NCCC(c1ccccc1)c1ccccc1)Nc1ccc(Cl)cc1 | inconclusive [inhibitor, single point] | –
CC(C)N(c1ccccc1)c1ccc(NC(=O)CCl)cc1 | inconclusive [inhibitor, single point] | –
Cc1nn2c([nH]c(=O)c3ccccc32)c1C=O | active: 11.2 µM | –
CCN(CC)C(=O)CSc1ncnc2c1cnn2-c1ccccc1 | inconclusive [activator, full curve] | –
C=CCc1ccc(O)c(OC)c1 | inactive | –
COc1cc(C=O)ccc1OCCSc1ccc(C)cc1 | inconclusive [inhibitor, partial curve] | –
Cc1cnc(C(=O)Nc2ccccc2-c2ccc(C)o2)cn1 | inconclusive [inhibitor, single point] | –
COCCOc1cc(Nc2nnc(C(F)(F)F)s2)c(Cl)cc1Cl | inactive | –
Cc1c(C(=O)N2CCC(C)CC2)cccc1[N+](=O)[O-] | inactive | –
O=C(O)c1cccc(NC(=O)c2ccc(Cl)c(S(=O)(=O)N3CCCCCC3)c2)c1 | inconclusive [inhibitor, partial curve, poor fit] | –
COc1ccc(NC(=S)N(Cc2ccc(C)cc2)Cc2ccccn2)cc1 | inactive | –
COc1c(Cl)cccc1-c1cn2ccccc2n1 | inconclusive [inhibitor, single point] | –
O=C(COC(=O)c1ccc(Br)o1)NC1CCCCC1 | inconclusive [inhibitor, single point] | –
COc1ccccc1-n1cc(-c2ccc(C)cc2)[nH]c1=S | active: 7.08 µM | –
COc1cccc(C2=CC(c3ccc(OC)c(OC)c3OC)n3nnnc3N2)c1 (configuration not stated) | inconclusive [inhibitor, partial curve] | –
CCOc1cc(S(=O)(=O)NCCc2cccc(C)c2)c(OCC)cc1-n1cnnn1 | inconclusive [inhibitor, full curve, poor fit] | –
CC1(C)CC(=O)/C(=C\c2cccc([N+](=O)[O-])c2)C(C)(C)N1 | inconclusive [inhibitor, partial curve] | –
Cc1cc(C)c(C#N)c(SCc2ccccc2)n1 | inactive | –
